# Data taken from publication PMC4336329 (PLoS ONE, 2015).
# Among all 310,000 compounds or so, about 14,000 (4.5%) showed an effect of 50% or more. Effects have a minus sign here. This is one part of the list.
# Molecular target: human ether-à-go-go-related gene (hERG) potassium channel (human, UniProt Q12809)
# Test: primary screen, population patch clamp on CHO cells stably expressing hERG
# 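Note: peak tail current of the secondary pulse compared with the same well before compound.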
# Chain of human ether-à-go-go-related gene (hERG) potassium channel (Q12809 whole entry, looked up): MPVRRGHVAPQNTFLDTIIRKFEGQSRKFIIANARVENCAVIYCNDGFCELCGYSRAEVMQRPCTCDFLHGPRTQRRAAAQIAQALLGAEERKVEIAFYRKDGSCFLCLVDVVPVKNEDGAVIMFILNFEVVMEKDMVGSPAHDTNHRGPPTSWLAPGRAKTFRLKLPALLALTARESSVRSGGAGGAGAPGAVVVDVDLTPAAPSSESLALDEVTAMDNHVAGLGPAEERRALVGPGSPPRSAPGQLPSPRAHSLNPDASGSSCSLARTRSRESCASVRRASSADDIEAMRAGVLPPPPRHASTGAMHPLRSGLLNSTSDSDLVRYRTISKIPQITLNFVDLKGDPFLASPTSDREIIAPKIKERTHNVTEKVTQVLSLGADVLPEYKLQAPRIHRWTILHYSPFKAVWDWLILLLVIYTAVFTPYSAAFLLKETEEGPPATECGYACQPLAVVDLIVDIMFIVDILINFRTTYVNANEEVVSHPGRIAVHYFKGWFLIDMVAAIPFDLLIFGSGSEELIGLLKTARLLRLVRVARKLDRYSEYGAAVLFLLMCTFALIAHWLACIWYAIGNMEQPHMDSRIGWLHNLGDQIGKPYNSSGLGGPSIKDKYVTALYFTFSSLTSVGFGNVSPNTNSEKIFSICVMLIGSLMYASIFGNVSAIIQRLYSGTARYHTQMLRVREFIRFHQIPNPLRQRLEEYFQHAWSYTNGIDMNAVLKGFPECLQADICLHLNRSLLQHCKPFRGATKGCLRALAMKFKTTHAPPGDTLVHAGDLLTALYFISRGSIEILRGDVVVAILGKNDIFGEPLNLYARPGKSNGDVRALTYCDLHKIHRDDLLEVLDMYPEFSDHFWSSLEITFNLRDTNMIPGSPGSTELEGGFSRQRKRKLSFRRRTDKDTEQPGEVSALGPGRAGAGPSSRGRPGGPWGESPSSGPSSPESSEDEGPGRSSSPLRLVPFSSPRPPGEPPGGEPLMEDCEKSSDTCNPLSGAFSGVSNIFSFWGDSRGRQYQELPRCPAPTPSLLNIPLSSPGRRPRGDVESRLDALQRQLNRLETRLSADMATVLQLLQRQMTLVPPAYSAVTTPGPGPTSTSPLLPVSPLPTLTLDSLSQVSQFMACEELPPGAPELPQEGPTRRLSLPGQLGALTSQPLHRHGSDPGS
row,SMILES,"hERG current change (%, negative = inhibition) at 10uM [%]"
1,COC(=O)c1c(NC(C)=O)sc(C(=O)Nc2ccccc2)c1C,52.7
2,CC(=O)COC(=O)c1ccc2noc(-c3ccccc3)c2c1,-6.51
3,O=C(CSc1nnc(CNc2ccc(F)cc2)n1Cc1ccco1)N1CCOCC1,-31
4,O=C(N/N=C/c1c(F)cccc1Cl)C1CC1,13.4
5,CN(C(=O)Cn1nc(C(=O)O)c2ccccc2c1=O)C1(C#N)CCCCC1,7.82
6,CC(C)(CNC(=O)Cc1ccc(Br)cc1)N1CCOCC1,8.38
7,C=CCNC(=O)CN1CCC(NC(=O)c2ccco2)CC1,5.89
8,CCCCCC(=O)Nc1ccc(-c2csc(C)n2)cc1,18.7
9,CC1(C)CN(c2ccccc2)N(C(=O)c2ccc(C#N)cc2)C1=O,-16.8
10,CC(C)CC(=O)NC(=S)Nc1sc2c(c1C(N)=O)CCC2,15.7
11,CCCCC/C=C/C1=CC(=O)C[C@H](c2ccc(OC)c(OC)c2)C1,10.8
12,CC1=NN(c2ccc(C)cc2C)C(=O)C1C(c1ccccc1O)C1C(=O)N(c2ccc(C)cc2C)N=C1C (centres unmarked),13.2
13,CCOc1ccc(S(=O)(=O)NCc2ccccn2)cc1NC(=O)c1ccccc1F,15.1
14,CCO[C@H]1OC(C(=O)N2CCN(C)CC2)=C[C@@H](c2ccc3c(c2)OCO3)[C@@H]1CCCO,3.93
15,O=C(O)CC(c1ccc(Cl)cc1)n1cccc1 (centres unmarked),5.89
16,COc1ccc(/C=C/C(=O)N(CC(C)C)C2CCS(=O)(=O)C2)cc1 (centres unmarked),1.7
17,O=C(N/N=C/c1ccc(O)cc1)c1cc(-c2ccccc2)nc2ccccc12,11.2
18,CCCCCC(=O)OC(CN1CCCCC1)CN1CCCC1=O.Cl (centres unmarked),5.42
19,COc1cc2ncnc(NCc3ccc(C)o3)c2cc1OC,-11.5

row,SMILES,"hERG current change (%, negative = inhibition) at 10uM [%]"
1,Cc1cc(C(=O)OCC(=O)N2CCOCC2)ccc1[N+](=O)[O-],17.7
2,CC(C)(C)SCCNC(=O)COc1ccccc1,-0.00422
3,COc1ccc(C(=O)NNC(=S)NC(=O)c2cccnc2)cc1,2.49
4,CCN(CC)c1ccc(/C=N/NC(=O)OC(C)(C)C)cc1,-22.6
5,Cn1c(=O)c2c(nc(CN3CCN(Cc4ccccc4)CC3)n2CCN2CCOCC2)n(C)c1=O,-17.6
6,CCc1cc(=O)oc2cc(C)cc(OCC(=O)NC3CCN(Cc4ccccc4)CC3)c12,-36
7,Cc1ccccc1NC(=O)N1C2CCCC1CC(NC(=O)C1CC1)C2 (centres unmarked),10
8,O=S(=O)(NCC(c1cccnc1)N1CCN(Cc2ccccc2)CC1)c1ccc(Cl)cc1 (centres unmarked),-78.3
9,O=C(COC(=O)c1cc(=O)c2ccccc2o1)NC1CCCCC1,17.9
10,COc1ccc(/C=C/C(=O)Oc2cc(O)cc(O)c2)cc1,15.2
11,CCCOc1ccc(C2C(C(=O)c3ccc(C)o3)=C(O)C(=O)N2Cc2cccnc2)cc1 (centres unmarked),12.9
12,CCCCOc1ccc(C(=O)NCC(=O)NCC(c2cccs2)N2CCOCC2)cc1 (centres unmarked),-22.6
13,CCOC(=O)C1=C(C)N=c2s/c(=C\c3ccc(O)c([N+](=O)[O-])c3)c(=O)n2C1c1ccccc1OC (centres unmarked),-61.7
14,Cc1nc(-c2ccc(S(=O)(=O)Oc3ccc(Cl)cc3Cl)s2)cs1,9.25
15,CC(=O)c1ccc(OCCCCCCCOc2ccc(C(C)=O)cc2)cc1,26.3
16,CCn1nnc(-c2ccccc2NC(=O)c2cnccn2)n1,-0.711
17,CCOc1ccc(CNC(=O)CCn2c(=O)oc3ccccc32)cc1OC,-7.47
18,O=C(CSc1nnc(-c2ccc(F)cc2)o1)Nc1ccc(S(=O)(=O)N2CCCC2)cc1,-2.73
19,CCOc1ccc(NCc2nnc(SCC(=O)Nc3cc(C)on3)n2-c2ccc(OC)cc2)cc1,-4.02

row,SMILES,"hERG current change (%, negative = inhibition) at 10uM [%]"
1,CCn1c(=O)c2c(nc3n2CCCN3Cc2ccccc2)n(C)c1=O,-18.2
2,CN1CCN(c2c(F)cc([N+](=O)[O-])c(N)c2Br)CC1,-45.3
3,COc1ccc2c(c1OC)C(=O)N1N=C(c3ccc(O)cc3)CC21 (centres unmarked),-1.59
4,CC1CCN(c2c(NCC3CCC(C(=O)NCCc4ccccc4)CC3)c(=O)c2=O)CC1 (centres unmarked),1.51
5,CCc1ccc(C(C)NC(=O)c2ccncc2)cc1 (centres unmarked),3.72
6,Cc1ccc(N2C(=O)C3CC(c4ccccc4)=C4C5C=CC(C6C(=O)N(c7ccc(C)cc7)C(=O)C56)C4C3C2=O)cc1 (centres unmarked),-73.6
7,Cc1cc(C)c(Cc2c(C)nc3c(C(=O)NCc4ccco4)cnn3c2C)c(C)c1,9.22
8,Cc1cc(C)c(C2=CSC3=NS(=O)(=O)CCN23)c(C)c1,3.29
9,O=C(O)c1ccc(N2CCCCS2(=O)=O)cc1,23
10,COCC(C)n1c(C)cc(C(=O)CN2c3cccc4cccc(c34)S2(=O)=O)c1C (centres unmarked),7.03
11,CSc1nc2[nH]c3c(c2c2nnnn12)CCCC3,9.92
12,COc1ccc(C(=O)N/N=C/c2ccc(SC)cc2)cc1,3.02
13,COc1ccc(C(CC(=O)O)NC(=O)c2ccccc2[N+](=O)[O-])cc1 (centres unmarked),17.9
14,COCCN(C(=O)Cc1cccs1)c1nnc(-c2ccncc2)s1,-4.09
15,Cc1cccn2c(CN(C)CC3CCCCO3)c(C(=O)N3CCCCC3)nc12 (centres unmarked),20.9
16,Cc1nc(=O)c(-c2ccccc2)c(C)n1CC1CCCO1 (centres unmarked),3.28
17,CCOC(=O)c1ccc(NC(=O)C(=O)NCc2ccccn2)cc1,8.91
18,CC(=O)C(Sc1ccc2nnc(-c3ccc(C)cc3)n2n1)C(C)=O,-1.98
